# Assay results taken from patent publication US9803013B2, “Biological materials and uses thereof” (BioInvent International AB, priority 2005, dated 2017).
# B1: B1: fully human IgG1 antibody specific for HLA-DR/DP; VH and VL sequences of FIG. 9 (SEQ ID NOs. 2 and 4) (antibody, listed as Homo sapiens, V domains shown)
# VH: [about 100 residues left out here]DGLLPLDYWGQGTLVTVSS
# VL: QSVLTQPPSASGTPGQRVTISCSGGSSNIGGNAVNWYQQLPGTAPKLLIYENNKRPSGVPDRFSGSKSGTSASLAISGLRSEDEADYYCSSYAVSNNFEVLFGGGTKLTVLG
# Assays:
# [1] = system: WSU-NHL; assay: IgG binding to B lymphoma cell line, flow cytometry MFI; design: species or system human; details: Follicular Lymphoma, control FITC-8 IgG MFI subtracted
# Method: (§1) • ^aApoptosis Induction; determined by percentage of viable cells after 6 hour incubation with any of the human antibodies, crosslinked with Goat anti-Human (gamma) Fc specific antibody; −, viability not affected; +, 95-80%; ++, 79-60%; +++, 59-40% viable cells compared to control (human FITC-8 IgG1). […] The cell line dependent MFI value of control human FITC-8 IgG antibody was subtracted from the MFI of each human antibody.
# [2] = system: SC-1; assay: as above; design: species or system human; details: SC-1, Follicular Lymphoma; control FITC-8 IgG MFI subtracted
# Method: as §1
# [3] = system: BJAB; assay: as above; design: species or system human; details: Burkitt's Lymphoma, control FITC-8 IgG MFI subtracted
# Method: as §1
# [4] = system: SP-53; assay: as above; design: species or system human; details: SP-53, Mantle cell Lymphoma; control FITC-8 IgG MFI subtracted
# Method: as §1
# [5] = system: CL-01; assay: as above; design: species or system human; details: CL-01, Burkitt's Lymphoma; control FITC-8 IgG MFI subtracted
# Method: as §1
# [6] = system: NCEB-1; assay: as above; design: species or system human; details: NCEB-1, Mantle cell Lymphoma; control FITC-8 IgG MFI subtracted
# Method: as §1
# [7] = system: Daudi; assay: as above; design: species or system human; details: Burkitt's Lymphoma, control FITC-8 IgG MFI subtracted
# Method: as §1
# [8] = system: Jeko-1; assay: as above; design: species or system human; details: Jeko-1, Mantle cell Lymphoma; control FITC-8 IgG MFI subtracted
# Method: as §1
# [9] = system: HLA-DR; assay: Radioiodinated IgG B1 binding to Raji cells, Rosenthal-Scatchard analysis; design: species or system human
# Method: Iodination of 1 mg/ml of IgG1 B1 or IgG1 B11 proteins with [^125I] NaI was performed in PBS for 10 min using Iodogen pre-coated iodination tubes (Pierce). Free [^125I] NaI was removed by desalting on PD-10 columns (Amersham Biosciences), yielding specific radioactivities in the range of 1000-1600 cpm per ng protein. [^125I] IgG1 B1 and [^125I] IgG1 B11 was used for determination of antibody affinities.
# Radioiodinated IgG B1 or IgG B11 was incubated with B lymphoma cells in DPBS-B-hIgG (DPBS-B containing 0.2 mg/ml human IgG) for 2 h on ice with intermittent mixing. Non-specific binding was determined in the presence of 0.2 mg/ml unlabelled IgG B1 or IgG B11 protein, as appropriate. […]
# Cells were loaded on top 40% v/v Ficoll/DPBS-B cushions in individual tubes and were centrifuged at 400×g for 6 min at 4° C. […] Cell pellets and cell supernatants were isolated and analysed separately for ^125I-IgG protein content in a gamma counter, following cutting of the tubes in half.
# Antibody affinity constants (Kd values) and epitope numbers per cell were determined from Scatchard plot analysis according to Rosenthal et al. (Anal. Biochem. (1967) 20:525-532); Bylund and Yamamura (Methods in Neurotransmitter Analysed, New York: Raven Press Ltd., 1990); and Marquardt (J. Soc. Indust. Appl. Math. (1963) 11:431-441), as previously described (Brix et al., J. Clin. Invest. (1998) 102:283-293). […]
# [10] = system: WSU-NHL; assay: Apoptosis induction by cross-linked IgG (Annexin V/PI); format: cell-based, human; details: viable cells after 6 hour incubation, crosslinked, compared to control FITC-8 IgG1
# Method: (§2) 2×10^5 B lymphoma cells (Raji or Ramos) or Jurkat T cells were incubated with serially diluted and detoxified scFv's in culture medium for 1 h on ice.
# (§3) When whole IgGs were used for apoptosis induction, cross-linking reagent was replaced by goat Fab′2 anti-human Fc γ antibody (Jackson ImmunoResearch) with minimal cross-reactivity with non-IgG antibody isotypes (to avoid unspecific cross-linking of endogenous B lymphoma associated surface immunoglobulins) and incubated, as described above, for 6 h.
# (§4) Apoptotic cells were, unless otherwise stated, detected by combined staining with Annexin V Alexa Fluor 488 (AV) and Propidium Iodide (PI) (both from Molecular Probes, Invitrogen) and subsequent flow-cytometric analysis, Cells were defined as viable (AV−/PI−), early apoptotic (AV+/PI−) or late apoptotic/necrotic (AV+/PI+). AV and PI signals were recorded in the FL1 and FL2 or FL3 channels (as indicated in the text), respectively, using a FACSCalibur instrument (BD Biosciences).
# as §1
# [11] = system: Rec-1; assay: as above; format: cell-based, human; details: viable cells after 6 hour incubation, crosslinked, compared to control FITC-8 IgG1
# Method: as §2, §3, §4, §1
# [12] = system: SC-1; assay: as above; format: cell-based, human; details: viable cells after 6 hour incubation, crosslinked, compared to control FITC-8 IgG1
# Method: as §2, §3, §4, §1
# [13] = system: BJAB; assay: as above; format: cell-based, human; details: viable cells after 6 hour incubation, crosslinked, compared to control FITC-8 IgG1
# Method: as §2, §3, §4, §1
# [14] = system: Granta 519; assay: as above; format: cell-based, human; details: viable cells after 6 hour incubation, crosslinked, compared to control FITC-8 IgG1
# Method: as §2, §3, §4, §1
# [15] = system: Reh/KM-3; assay: as above; format: cell-based, human; details: viable cells after 6 hour incubation, crosslinked, compared to control FITC-8 IgG1
# Method: as §2, §3, §4, §1
# [16] = system: SP-53; assay: as above; format: cell-based, human; details: viable cells after 6 hour incubation, crosslinked, compared to control FITC-8 IgG1
# Method: as §2, §3, §4, §1
# [17] = system: CL-01; assay: as above; format: cell-based, human; details: viable cells after 6 hour incubation, crosslinked, compared to control FITC-8 IgG1
# Method: as §2, §3, §4, §1
# [18] = system: MC/CAR; assay: as above; format: cell-based, human; details: viable cells after 6 hour incubation, crosslinked, compared to control FITC-8 IgG1
# Method: as §2, §3, §4, §1
# [19] = system: DOHH-2; assay: as above; format: cell-based, human; details: viable cells after 6 hour incubation, crosslinked, compared to control FITC-8 IgG1
# Method: as §2, §3, §4, §1
# [20] = system: NCEB-1; assay: as above; format: cell-based, human; details: viable cells after 6 hour incubation, crosslinked, compared to control FITC-8 IgG1
# Method: as §2, §3, §4, §1
# [21] = system: JVM-2; assay: as above; format: cell-based, human; details: viable cells after 6 hour incubation, crosslinked, compared to control FITC-8 IgG1
# Method: as §2, §3, §4, §1
# [22] = system: RL; assay: as above; format: cell-based, human; details: viable cells after 6 hour incubation, crosslinked, compared to control FITC-8 IgG1
# Method: as §2, §3, §4, §1
# [23] = system: Jeko-1; assay: as above; format: cell-based, human; details: viable cells after 6 hour incubation, crosslinked, compared to control FITC-8 IgG1
# Method: as §2, §3, §4, §1
# [24] = system: Reh/KM-3; assay: IgG binding to pre B cell leukaemia cell line, flow cytometry MFI; design: species or system human; details: Reh/KM-3, pre B cell Leukaemia; control FITC-8 IgG MFI subtracted
# Method: as §1
molecule,measurement,setting,value
B1,MFI,[1],280
same,MFI,[2],170
same,MFI,[3],530
same,MFI,[4],500
same,MFI,[5],940
same,MFI,[6],750
same,MFI,[7],200
same,MFI,[8],1000
same,Kd,"[9]; Rosenthal-Scatchard plot, bivalent epitope-IgG interaction assumed, read-out: dissociation constant",~3 nM
same,concentration at which saturable specific binding is reached,"[9]; radioiodinated IgG, 4° C",~30 nM
same,Apoptosis Induction,[10],+ (95-80%)
same,Apoptosis Induction,[11],−
same,Apoptosis Induction,[12],+ (95-80%)
same,Apoptosis Induction,[13],+ (95-80%)
same,Apoptosis Induction,[14],++ (79-60%)
same,Apoptosis Induction,[15],+++ (59-40% viable cells compared to control (human FITC-8 IgG1))
same,Apoptosis Induction,[16],++ (79-60%)
same,Apoptosis Induction,[17],+++ (59-40% viable cells compared to control (human FITC-8 IgG1))
same,Apoptosis Induction,[18],++ (79-60%)
same,Apoptosis Induction,[19],−
same,Apoptosis Induction,[20],+ (95-80%)
same,Apoptosis Induction,[21],+ (95-80%)
same,Apoptosis Induction,[22],−
same,Apoptosis Induction,[23],+++ (59-40% viable cells compared to control (human FITC-8 IgG1))
same,MFI,[24],240
